{"source": "the supplement of paper PMC10185492", "note": "The list shows a part of the results. Values come from read counts of a selection and are noisy."}
{"test_system": "SARS-CoV-2 3CLpro (nsp5)", "assay": "substrate phage enrichment score (protease-eluted vs HEPES control, +1 offset) (ratio); higher = better cleaved substrate", "conditions": "selection round: 4; protease elution time: 15 min", "description": "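Random heptapeptide substrate phage display (M13 pIII fusion, heptapeptide between an N-terminal biotinylated AviTag GLNDIFEAQKIEWHE and pIII; phages immobilised on streptavidin) eluted by cleavage with 50 nM protease in 20 mM HEPES at 37 °C. Selected phages were NGS sequenced, and the enrichment score is (reads in protease sample + 1)/(reads in HEPES blank-selection control + 1).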"}
{"substance": "SKNLICT", "substrate phage enrichment score": "> 21"}
{"substance": "NDNWMPV", "substrate phage enrichment score": 3.19}
{"substance": "KTTLQSN", "substrate phage enrichment score": 772}
{"substance": "AAGPRWL", "substrate phage enrichment score": "> 36"}
{"substance": "RNTCVLQ", "substrate phage enrichment score": 36.3}
{"substance": "VFPRLQS", "substrate phage enrichment score": "> 61"}
{"substance": "SCEVFRH", "substrate phage enrichment score": 2.64}
{"substance": "SGSAILT", "substrate phage enrichment score": "> 65"}
{"substance": "HRQYLYC", "substrate phage enrichment score": 2.38}
{"substance": "ARGELDA", "substrate phage enrichment score": "> 52"}
{"substance": "YTRTERG", "substrate phage enrichment score": 7.33}
{"substance": "KSMHKHA", "substrate phage enrichment score": 1}
{"substance": "LNSESQS", "substrate phage enrichment score": 1.9}
{"substance": "RSSDPSF", "substrate phage enrichment score": 2.45}
{"substance": "SNCSQLQ", "substrate phage enrichment score": "> 23"}
{"substance": "VGRLGIV", "substrate phage enrichment score": "> 26"}
{"substance": "TRHHHHG", "substrate phage enrichment score": 3.5}
{"substance": "LVRPHII", "substrate phage enrichment score": 0.63}
{"substance": "GGGGGGG", "substrate phage enrichment score": 0.769}
{"substance": "YEHSPEA", "substrate phage enrichment score": 2}
{"substance": "TSLQGTT", "substrate phage enrichment score": "> 26"}
{"substance": "PLCVTLQ", "substrate phage enrichment score": "> 29"}
{"substance": "VSGWTEI", "substrate phage enrichment score": 5.75}
{"substance": "MELEHTF", "substrate phage enrichment score": 1.3}
{"substance": "VSGAAPC", "substrate phage enrichment score": "> 28"}
{"substance": "LKAAHHH", "substrate phage enrichment score": 0.784}
{"substance": "STSDVVR", "substrate phage enrichment score": 2.64}
{"substance": "EYCHGMS", "substrate phage enrichment score": 0.0769}
{"substance": "RNAAAHH", "substrate phage enrichment score": 2.4}
{"substance": "GTLKTEA", "substrate phage enrichment score": 0.25}
{"substance": "GWYQGDN", "substrate phage enrichment score": "> 33"}
{"substance": "ALHGTRC", "substrate phage enrichment score": 0.529}
{"substance": "IETRLSV", "substrate phage enrichment score": "> 21"}
{"substance": "FSCLPGP", "substrate phage enrichment score": 6.8}
{"substance": "AASVSLQ", "substrate phage enrichment score": "> 23"}
{"substance": "IPIHCDR", "substrate phage enrichment score": 3.37}
{"substance": "AHSQCLQ", "substrate phage enrichment score": 11.5}
{"substance": "CYRPVPR", "substrate phage enrichment score": 2.11}
{"substance": "KTKSECT", "substrate phage enrichment score": 1.45}
{"substance": "IETEDVT", "substrate phage enrichment score": "> 126"}
{"substance": "SAAAPQH", "substrate phage enrichment score": 1.83}
{"substance": "SSWPPEG", "substrate phage enrichment score": "> 40"}
{"substance": "WQHHDGK", "substrate phage enrichment score": "> 51"}
{"substance": "PDFQGGS", "substrate phage enrichment score": 1.02}
{"substance": "DRSRTES", "substrate phage enrichment score": 0.909}
{"substance": "WHTTRTT", "substrate phage enrichment score": 3.33}
{"substance": "HCLKDMA", "substrate phage enrichment score": 1.71}
{"substance": "YQLHYVD", "substrate phage enrichment score": 1.59}
{"substance": "QVEPAGG", "substrate phage enrichment score": 5.5}
{"substance": "CHREKNS", "substrate phage enrichment score": 11}
{"substance": "RLPFQGG", "substrate phage enrichment score": 2.29}
{"substance": "SHKPRPH", "substrate phage enrichment score": 2.29}
{"substance": "AHPARCS", "substrate phage enrichment score": "> 26"}
{"substance": "SSACWRS", "substrate phage enrichment score": 1.65}
{"substance": "SQGTQEN", "substrate phage enrichment score": "> 22"}
{"substance": "KAMPNLT", "substrate phage enrichment score": 1.75}
{"substance": "NFHPKLG", "substrate phage enrichment score": 1.33}
{"substance": "VIEKPYH", "substrate phage enrichment score": "> 28"}
{"substance": "PTAETDP", "substrate phage enrichment score": "> 37"}
{"substance": "SAAAHPH", "substrate phage enrichment score": 1.06}
{"substance": "DVAAHHH", "substrate phage enrichment score": 0.581}
{"substance": "QLPRMTQ", "substrate phage enrichment score": "> 21"}
{"substance": "CNHPMKV", "substrate phage enrichment score": 1.33}
{"substance": "SVPSHIS", "substrate phage enrichment score": "> 22"}
{"substance": "SGNYGSL", "substrate phage enrichment score": "> 22"}
{"substance": "HGNEVSD", "substrate phage enrichment score": 1.45}
{"substance": "KERLSSS", "substrate phage enrichment score": "> 31"}
{"substance": "TRSSGEQ", "substrate phage enrichment score": 1.64}
{"substance": "QRPAPIT", "substrate phage enrichment score": 10.8}
{"substance": "THFQGGS", "substrate phage enrichment score": 1.73}
{"substance": "NDNPKNR", "substrate phage enrichment score": 0.135}
{"substance": "NNYSVQG", "substrate phage enrichment score": 1.87}
{"substance": "CKDVRSK", "substrate phage enrichment score": 0.0606}
{"substance": "GVALESS", "substrate phage enrichment score": "> 28"}
{"substance": "RSPSLLQ", "substrate phage enrichment score": "> 92"}
{"substance": "PCTVTMQ", "substrate phage enrichment score": "> 87"}
{"substance": "SHREEYQ", "substrate phage enrichment score": "> 145"}
{"substance": "RKEVQMQ", "substrate phage enrichment score": 39.2}
{"substance": "WSAAHHH", "substrate phage enrichment score": 0.919}
{"substance": "RFNTTTR", "substrate phage enrichment score": 2.88}
{"substance": "ASSPQQH", "substrate phage enrichment score": "> 29"}
{"substance": "PQWTQSC", "substrate phage enrichment score": 5}
{"substance": "SAAAQQN", "substrate phage enrichment score": 1.83}
{"substance": "LKQNLSP", "substrate phage enrichment score": 0.871}
{"substance": "KGAPCTV", "substrate phage enrichment score": 3.29}
{"substance": "VLSQMPN", "substrate phage enrichment score": 0.476}
{"substance": "TNHPTLT", "substrate phage enrichment score": "> 79"}
{"substance": "TRKPHLG", "substrate phage enrichment score": 0.8}
{"substance": "PALLNSG", "substrate phage enrichment score": 9.54}
{"substance": "PNTASPF", "substrate phage enrichment score": 0.316}
{"substance": "RKEQYLP", "substrate phage enrichment score": "> 22"}
{"substance": "GPTIRTQ", "substrate phage enrichment score": "> 27"}
{"substance": "SDFQGGS", "substrate phage enrichment score": 1.58}
{"substance": "ESLRKQY", "substrate phage enrichment score": "> 32"}
{"substance": "SSTANLQ", "substrate phage enrichment score": "> 24"}
{"substance": "KGTLRPV", "substrate phage enrichment score": 4.38}
{"substance": "YGRQSLS", "substrate phage enrichment score": 0.0909}
{"substance": "HEIQITK", "substrate phage enrichment score": "> 35"}
{"substance": "EPGTAQH", "substrate phage enrichment score": 3.6}
{"substance": "ANNTTLQ", "substrate phage enrichment score": "> 28"}
{"substance": "KSQKFDV", "substrate phage enrichment score": 1.29}
{"substance": "RKCSETP", "substrate phage enrichment score": 0.636}
{"substance": "KSLAQCQ", "substrate phage enrichment score": 8}
{"substance": "EEADPER", "substrate phage enrichment score": 0.0766}
{"substance": "VRPHIIN", "substrate phage enrichment score": 0.929}
{"substance": "TDVMDQE", "substrate phage enrichment score": 0.0408}
{"substance": "SASTSNR", "substrate phage enrichment score": "> 29"}
{"substance": "IKRPPST", "substrate phage enrichment score": 2.56}
{"substance": "VTRSRLC", "substrate phage enrichment score": 8.33}
{"substance": "QSGDATD", "substrate phage enrichment score": 4.33}
{"substance": "QADGTAV", "substrate phage enrichment score": 16}
{"substance": "EIRHCRD", "substrate phage enrichment score": 0.778}
{"substance": "SCDEQHT", "substrate phage enrichment score": "> 84"}
{"substance": "TWPQGTE", "substrate phage enrichment score": 0.316}
{"substance": "DVRPWYQ", "substrate phage enrichment score": "> 26"}
{"substance": "CPEMQAM", "substrate phage enrichment score": "> 26"}
{"substance": "EGPSAMV", "substrate phage enrichment score": 6}
{"substance": "SPNTKNR", "substrate phage enrichment score": 2.65}
{"substance": "DVKLEMR", "substrate phage enrichment score": "> 22"}
{"substance": "RNQTPET", "substrate phage enrichment score": 19.7}
{"substance": "VCPQVKN", "substrate phage enrichment score": 2.43}
{"substance": "SQTKAGS", "substrate phage enrichment score": "> 29"}
{"substance": "KSTAAHH", "substrate phage enrichment score": 0.636}
{"substance": "AQRAKLQ", "substrate phage enrichment score": "> 21"}
{"substance": "TRQRPAP", "substrate phage enrichment score": 6}
{"substance": "AAQLQGV", "substrate phage enrichment score": "> 32"}
{"substance": "CRVSQPG", "substrate phage enrichment score": "> 43"}
{"substance": "PTAKPHP", "substrate phage enrichment score": 4.25}
{"substance": "PYFQGGS", "substrate phage enrichment score": 1.12}
{"substance": "RSNLNGR", "substrate phage enrichment score": 0.455}
{"substance": "TASNETD", "substrate phage enrichment score": 0.467}
{"substance": "YASQPDV", "substrate phage enrichment score": 0.75}
{"substance": "RALRDQQ", "substrate phage enrichment score": 1.88}
{"substance": "QWMERCE", "substrate phage enrichment score": 0.6}
{"substance": "SVSPESH", "substrate phage enrichment score": "> 55"}
{"substance": "QSPVRLQ", "substrate phage enrichment score": 41.3}
{"substance": "ELVEDPV", "substrate phage enrichment score": 0.826}
{"substance": "RQGTLPI", "substrate phage enrichment score": 0.667}
{"substance": "TKKCLLQ", "substrate phage enrichment score": "> 46"}
{"substance": "QDTAIPT", "substrate phage enrichment score": "> 30"}
{"substance": "RGRTILQ", "substrate phage enrichment score": "> 486"}
{"substance": "VRTGTKL", "substrate phage enrichment score": 6.5}
{"substance": "RVCFPVN", "substrate phage enrichment score": "> 23"}
{"substance": "LNCELGR", "substrate phage enrichment score": 7.75}
{"substance": "PCDKGTA", "substrate phage enrichment score": 24}
{"substance": "YGSSKEP", "substrate phage enrichment score": "> 21"}
{"substance": "SKTILLQ", "substrate phage enrichment score": "> 191"}
{"substance": "FNPVIGH", "substrate phage enrichment score": "> 33"}
{"substance": "ELHCHSA", "substrate phage enrichment score": "> 25"}
{"substance": "GNSCQAI", "substrate phage enrichment score": 3.4}
{"substance": "TSSPRVM", "substrate phage enrichment score": "> 40"}
{"substance": "VSTSKQH", "substrate phage enrichment score": 4.14}
{"substance": "WAPTTPL", "substrate phage enrichment score": "> 43"}
{"substance": "SNTRSPK", "substrate phage enrichment score": 1.62}
{"substance": "ISAAHHH", "substrate phage enrichment score": 0.8}
{"substance": "KHKSWCN", "substrate phage enrichment score": 1.78}
{"substance": "QWGLAEK", "substrate phage enrichment score": "> 92"}
{"substance": "SYTRYGF", "substrate phage enrichment score": 1.2}
{"substance": "AVQVSHP", "substrate phage enrichment score": 1.29}
{"substance": "SCAAHHH", "substrate phage enrichment score": 1.14}
{"substance": "YTEGYHH", "substrate phage enrichment score": "> 44"}
{"substance": "SSKSTVT", "substrate phage enrichment score": "> 39"}
{"substance": "LSDQNTP", "substrate phage enrichment score": 0.13}
{"substance": "NRGTSET", "substrate phage enrichment score": "> 23"}
{"substance": "VHQWDQQ", "substrate phage enrichment score": "> 21"}
{"substance": "GRSANAP", "substrate phage enrichment score": 0.261}
{"substance": "ESDTSKA", "substrate phage enrichment score": 5}
{"substance": "ARMPLMM", "substrate phage enrichment score": "> 29"}
{"substance": "NLPVRLQ", "substrate phage enrichment score": "> 861"}
{"substance": "SQQNAPL", "substrate phage enrichment score": 0.756}
{"substance": "NAGPRHC", "substrate phage enrichment score": 0.4}
{"substance": "HNLSEGY", "substrate phage enrichment score": 1.3}
{"substance": "LMRSTLQ", "substrate phage enrichment score": 13}
{"substance": "EQQAQTT", "substrate phage enrichment score": 0.935}
{"substance": "HVDRNGQ", "substrate phage enrichment score": 1.33}
{"substance": "TTNNWKA", "substrate phage enrichment score": 1.55}
{"substance": "SGNDEPV", "substrate phage enrichment score": 0.562}
{"substance": "AVREKSD", "substrate phage enrichment score": 18}
{"substance": "HQSELRM", "substrate phage enrichment score": 10}
{"substance": "IQTKNTR", "substrate phage enrichment score": "> 53"}
{"substance": "SDNWMTG", "substrate phage enrichment score": "> 29"}
{"substance": "DPNVLMH", "substrate phage enrichment score": 6.4}
{"substance": "NASAEMS", "substrate phage enrichment score": "> 47"}
